# Whole data set: some 33,000 sequences, median “E-score (-0.5 to 0.5)” near -0.035, cut for the highest 2% near 0.35. Some of the results follow.
# Target: T1, Pdr3 (UniProt P33200)
# T1 sequence: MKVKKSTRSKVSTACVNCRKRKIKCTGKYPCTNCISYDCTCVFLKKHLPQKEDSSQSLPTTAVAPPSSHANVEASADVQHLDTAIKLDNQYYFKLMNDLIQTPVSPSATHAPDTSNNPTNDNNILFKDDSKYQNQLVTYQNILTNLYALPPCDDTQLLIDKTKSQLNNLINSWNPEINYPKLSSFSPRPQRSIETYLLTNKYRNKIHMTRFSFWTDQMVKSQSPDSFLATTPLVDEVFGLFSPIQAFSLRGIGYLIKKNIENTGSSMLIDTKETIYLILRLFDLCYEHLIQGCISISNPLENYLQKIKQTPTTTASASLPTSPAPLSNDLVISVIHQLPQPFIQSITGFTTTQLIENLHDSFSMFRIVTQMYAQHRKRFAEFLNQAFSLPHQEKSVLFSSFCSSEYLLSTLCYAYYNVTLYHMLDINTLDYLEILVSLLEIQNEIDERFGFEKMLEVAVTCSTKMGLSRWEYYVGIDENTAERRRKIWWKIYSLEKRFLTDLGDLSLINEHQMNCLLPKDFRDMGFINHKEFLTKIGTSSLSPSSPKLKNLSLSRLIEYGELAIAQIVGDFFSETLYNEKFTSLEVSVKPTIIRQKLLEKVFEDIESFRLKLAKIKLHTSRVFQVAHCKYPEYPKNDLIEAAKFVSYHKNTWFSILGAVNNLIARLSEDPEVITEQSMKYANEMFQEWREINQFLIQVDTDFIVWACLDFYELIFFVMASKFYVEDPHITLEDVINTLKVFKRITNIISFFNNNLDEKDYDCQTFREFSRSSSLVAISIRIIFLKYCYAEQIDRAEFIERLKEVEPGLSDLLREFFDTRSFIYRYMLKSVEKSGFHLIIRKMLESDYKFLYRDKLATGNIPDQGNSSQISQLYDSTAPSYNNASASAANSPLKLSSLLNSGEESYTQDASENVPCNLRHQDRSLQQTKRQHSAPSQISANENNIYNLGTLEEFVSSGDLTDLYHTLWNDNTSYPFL
# Experiment: PBM E-score (8-mer binding enrichment) (E-score (-0.5 to 0.5)); higher = stronger / more preferred TF binding; most listed sequences are background and not binding sites
# Details: protein concentration: 200 nM; construct: GST-full length
# How it was run: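 Yeast transcription factors, full-length or as DNA-binding domains, were expressed with a GST tag using PURExpress in vitro transcription/translation. At about 100-200 nM they were applied to universal all-10-mer Agilent arrays, double-stranded by primer extension on fresh or once-stripped slides. Fluorescent anti-GST detected bound protein, and masliner normalised the scans. E-scores for ungapped eight-base words, pooled with reverse complements, came from the Universal PBM Analysis Suite.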
row,Sequence,PBM E-score
1,CTAGAGGA,-0.269
2,GTAGTCAC,-0.165
3,CCGTTCCC,0.253
4,ACAGCAAT,0.00827
5,GAGCAGCA,0.0607
6,ATACGATC,0.0493
7,GATCTGCC,0.0457
8,AAAGAATC,-0.122
9,GAATGAGA,0.18
10,AGCATGGG,-0.127
11,GAAAAGTA,0.0139
12,AATGTGCA,-0.0886
13,TTGCGAAA,0.119
14,AAGTTTCC,0.223
15,AAGCAAGC,0.019
16,GTAAATAC,-0.0114
17,AGTGAGCG,-0.0777
18,GGAGTGCA,0.116
19,AGTATTTA,-0.0356
20,AGCTAGCT,-0.169
21,AACACGGT,0.0475
22,GAGGAGGC,-0.207
23,CTGAAACA,-0.17
24,ATGGTAGA,-0.0968
25,CTTCAAAC,-0.0379

row,Sequence,PBM E-score
1,AGCTAGTA,0.0296
2,GCGATGAA,0.0515
3,AGAAATAC,-0.034
4,AGGATACG,-0.206
5,CTTTCTTC,0.00121
6,CGATGTAG,-0.198
7,AACAAATT,0.037
8,CTAACGGA,0.389
9,GGAACATA,0.253
10,ATCCGTAC,0.248
11,ACATGCAA,-0.0141
12,ACAAGTGG,-0.168
13,CGATGAAC,0.123
14,CCTCGCGA,0.0886
15,AGGCGGTC,-0.0419
16,CCTGTTTA,-0.135
17,CACGTGGC,-0.308
18,CGAGTAAG,0.222
19,GGACCACC,0.151
20,GGCCCACA,0.091
21,CTTAAACC,-0.206
22,GACAATCA,-0.052
23,AACGATAC,-0.192
24,GCATCGCA,-0.106
25,AATTAGAT,0.0511

row,Sequence,PBM E-score
1,GCCGAAAC,0.0955
2,GATAGTCC,0.0432
3,CCACTCCG,0.235
4,GTATTGGA,-0.223
5,AAGGTTGG,-0.122
6,GATTGAGA,0.151
7,CTTAGTCA,-0.227
8,AAGCTACG,-0.235
9,ACCGGATC,0.34
10,ATATTCAA,0.12
11,GGACAAGA,0.061
12,CCTAAGAA,-0.123
13,GTCCCCCA,-0.19
14,GCAATGCC,0.15
15,CCACGTAA,-0.0761
16,ACTGACAT,-0.0821
17,CCTCTAAC,-0.199
18,GGCTAAAA,-0.166
19,AGACGAGA,-0.0506
20,ATAGATCC,0.169
21,ATTTTACG,0.139
22,CGAATGAG,0.138
23,CAGTAATC,-0.139
24,AGACAAAG,-0.176
25,AACTTTAT,-0.0312

row,Sequence,PBM E-score
1,TAATAACA,0.0148
2,GCCATGTA,-0.0585
3,ACGATCCA,-0.0267
4,CTGTAGCC,-0.232
5,GGGCAGGA,-0.00058
6,AAGCTTCC,-0.0761
7,ATTATGTC,-0.11
8,TGTAGCAA,0.127
9,GCTCACCA,-0.243
10,AATTACCA,0.025
11,GCCCATAA,-0.0973
12,CGCTTACA,-0.00791
13,GAATCGAC,0.218
14,CTAACCTA,-0.078
15,GAGACTGA,0.00553
16,GGGACGTA,-0.0312
17,AAAAGTGT,-0.214
18,GCTCCCCA,-0.329
19,CTTGGGCA,0.0396
20,ACCCTGCA,0.0556
21,CAACATGG,-0.136
22,ATGGCACG,0.117
23,AACGATTA,-0.047
24,ATCGGCGA,0.114
25,ATACGTAT,0.161

row,Sequence,PBM E-score
1,ATAGATTC,-0.0406
2,ACCGCCGT,0.114
3,GCGTAGCA,0.0185
4,TAACCCTA,-0.207
5,CTAAGTAG,-0.202
6,AGTACCGG,0.118
7,AGAATACC,0.0677
8,GACCGGGC,0.0834
9,CGAGACTC,-0.0603
10,GAGGTCGC,0.1
11,TAGTTTAA,0.0408
12,CATGCATG,-0.151
13,AGTGGCCA,-0.0958
14,AACTCATT,0.0859
15,GACACAGA,0.0915
16,CAGCCTAA,-0.25
17,AAGGGACT,-0.167
18,AAGACTAT,-0.13
19,AAGATTCA,0.0105
20,CCAACTAC,0.00948
21,CCGCTCAG,-0.0398
22,CCATCGAG,0.0771
23,TATTAATA,0.105
24,CTCCTCGA,-0.19
25,ACGGACAC,0.321

row,Sequence,PBM E-score
1,CAACACGG,0.184
2,CTTCGCGC,0.274
3,CAGGTTCA,-0.16
4,CTGGACTA,-0.245
5,CCAAGGAG,0.0202
6,CGTGTGAA,-0.0144
7,GCGATCTA,-0.0287
8,ATCGAGAC,-0.0995
9,AGCCATAT,-0.0397
10,ATCGTGCA,-0.107
11,AATGGTTA,-0.0805
12,CCACGCCG,0.0652
13,CCCTATAA,-0.032
14,ACGTACTC,0.073
15,TCCATAAA,-0.128
16,CGATCCTC,-0.0462
17,CTCTGGTC,-0.014
18,AAGGCAGA,-0.284
19,GTCTCCAC,-0.208
20,GATCCAGA,0.106
21,CAGCGATA,-0.102
22,AGATAATC,0.0844
23,ACACTTCT,-0.091
24,AGGGCGGC,-0.0768
25,ATTGATAG,-0.0537

row,Sequence,PBM E-score
1,CCATATAC,0.0579
2,CAGCAGTC,-0.156
3,ATATAACA,0.0403
4,CTATGAAA,0.0145
5,TACAACAA,-0.105
6,CGCTGAGA,0.0316
7,TGCGTACA,-0.207
8,ACTGTCCG,0.303
9,CTGTGGTA,-0.0336
10,AACCTTAC,0.0452
11,GCCAGAAA,0.119
12,GTTCATAA,-0.188
13,GTCTGTTA,-0.00771
14,AATCTACC,0.14
15,GACACCTA,-0.128
16,ACAAGAAT,-0.0798
17,CAGAGCAG,-0.0775
18,ACGGCCCG,0.22
19,AATTGTAC,0.0292
20,CAACATAC,0.0348
21,GAGTGCGA,0.064
22,CTTAAGCC,-0.00776

# Source: the supplement of paper PMC3334620
